Assay results: the supplement of paper PMC10126150
Sequences with one replicate were seen in a single cluster, so their values are uncertain.

System: ATP
Test: switch fluorescence ratio, 500 uM ATP over buffer (Cy3 cluster intensity, sum of 5 cycles each) (fold (ratio)); higher = stronger signal-on switching upon ATP binding; sequences stand for … in TCGTCGGCAGCGTCAGATGTGTATAAGAGACAGTTTTTTTTTTTTTTTTTTTTTTTTT…TC
Conditions: aptamer strand: ATP DNA aptamer (quencher-CACCTGGGGGAGTATTGCGGAGGAAGG + anchor), 100 nM annealed; ATP concentration: 500 uM; one replicate
How it was run: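 For every switch-domain sequence, the fluorescence ratio is the mean of per-cluster values, each being summed target-cycle Cy3 intensity over summed buffer-cycle Cy3 intensity. Clusters outside 100-1000 RFU were excluded. On a modified Illumina MiSeq flow-cell, the Cy3-labelled switching-strand clusters were annealed to 100 nM quencher-labelled ATP aptamer, imaged in selection buffer and then after 15 min with 500 uM ATP at 22 °C. Five such cycles were run, with NaOH stripping and re-annealing between them.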
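Further: ATP exposure 15 min at 22 °C before imaging.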

GTGTTTCCCA was tested, and the switch fluorescence ratio was 1.01.

AAGAAGGACT was tested, and the switch fluorescence ratio was 1.62.

With TTGCATGTGC the switch fluorescence ratio was 1.25.

In the case of TGGACTACGA, the switch fluorescence ratio is reported as 1.05.

With ATATTCAGGC the switch fluorescence ratio was 0.97.

For CCGATTAAAA, the switch fluorescence ratio was 1.08.

TGTGAGTAGC showed a switch fluorescence ratio of 1.03.

TGCTGTTTT gave a switch fluorescence ratio of 0.969.

Sequence CCTGGGTCTC has a switch fluorescence ratio of 3.18.

GCAGCCCGAA was tested, and the switch fluorescence ratio was 1.03.

Work on GATATACGGA yielded a switch fluorescence ratio of 1.04.

Work on TGAAGGGCCT yielded a switch fluorescence ratio of 0.91.

Sequence GGTACGTAT has a switch fluorescence ratio of 0.958.

In the case of AGCCTAGTGT, the switch fluorescence ratio is reported as 1.02.

For TCTGGCGTCG, the switch fluorescence ratio was 1.02.

Sequence CTAGCGGGAA has a switch fluorescence ratio of 0.999.

AATCTGAGGT gave a switch fluorescence ratio of 1.04.

ATCAAGTCGA was tested, and the switch fluorescence ratio was 1.03.

Sequence GAGTCCGACA has a switch fluorescence ratio of 1.66.

Sequence ACGGGCGCGA has a switch fluorescence ratio of 1.02.

Sequence GTCCCTGCGA has a switch fluorescence ratio of 1.22.

ATCCGGAGGC gave a switch fluorescence ratio of 1.07.

TATTTAGCCG gave a switch fluorescence ratio of 0.975.

In the case of GACAGTGAGT, the switch fluorescence ratio is reported as 1.01.

With CCCACGGATA the switch fluorescence ratio was 1.1.

Work on CATAGAACA yielded a switch fluorescence ratio of 0.974.

Sequence AGGGGTCCT has a switch fluorescence ratio of 1.02.

Sequence TAGAATATTC has a switch fluorescence ratio of 1.02.

Sequence CAGATAGTCG has a switch fluorescence ratio of 0.954.

GTTTCCGTA was tested, and the switch fluorescence ratio was 0.974.

Sequence AAAACTGAT has a switch fluorescence ratio of 0.995.

CCGGGACTGA was tested, and the switch fluorescence ratio was 0.991.

In the case of CGGGGATAAA, the switch fluorescence ratio is reported as 0.98.

For AGTCACACTT, the switch fluorescence ratio was 1.02.

Sequence GGACGACGTT has a switch fluorescence ratio of 0.973.

TAACCATACA gave a switch fluorescence ratio of 1.14.

In the case of GGTGGCCAAA, the switch fluorescence ratio is reported as 0.986.

In the case of AGGCTACCAA, the switch fluorescence ratio is reported as 1.05.

GGCCCCTTCG was tested, and the switch fluorescence ratio was 1.2.

AGGACGGATC showed a switch fluorescence ratio of 1.05.

TTTGCTGATT gave a switch fluorescence ratio of 1.01.

With AAATTGTAGG the switch fluorescence ratio was 0.992.

TGTTCGGGGT gave a switch fluorescence ratio of 0.968.

With AAATGCGGA the switch fluorescence ratio was 1.01.

Work on TTCGGAAAAA yielded a switch fluorescence ratio of 1.15.

CCTTCTAATC gave a switch fluorescence ratio of 2.12.

With TAACTTTAGA the switch fluorescence ratio was 1.01.

AAGGTAGTTG gave a switch fluorescence ratio of 1.

TATTCTTGAC gave a switch fluorescence ratio of 0.954.

For CTGACTGGAG, the switch fluorescence ratio was 1.03.

With GCTATCGTTT the switch fluorescence ratio was 0.964.

With TGTCGTAGT the switch fluorescence ratio was 0.948.

CTGGGAGCAT was tested, and the switch fluorescence ratio was 1.53.

TTCGGTGATA gave a switch fluorescence ratio of 0.998.

With GGTAGTTTGC the switch fluorescence ratio was 1.03.

With TGCTGACACG the switch fluorescence ratio was 1.04.

In the case of ATCGTTTTAA, the switch fluorescence ratio is reported as 1.

CGTTGTAAAC showed a switch fluorescence ratio of 0.968.

In the case of TATTGACCCT, the switch fluorescence ratio is reported as 1.08.

ATCTTACCAG was tested, and the switch fluorescence ratio was 1.1.

With TGAAACGAGC the switch fluorescence ratio was 1.02.

For CGCTTAGGGG, the switch fluorescence ratio was 1.01.

AAGTCCGGAA gave a switch fluorescence ratio of 1.38.

GCTTTTAATT showed a switch fluorescence ratio of 0.942.

With GCAGGCAAGC the switch fluorescence ratio was 1.05.

With CGCACTATCC the switch fluorescence ratio was 2.7.

With GACTCTAGCA the switch fluorescence ratio was 1.49.

CGCACTGCTA showed a switch fluorescence ratio of 1.19.

For CGGACCTCCA, the switch fluorescence ratio was 1.07.

With CGTTATCCTA the switch fluorescence ratio was 0.95.

In the case of TGAATGCGCG, the switch fluorescence ratio is reported as 1.05.

In the case of GTGTAGAGGC, the switch fluorescence ratio is reported as 1.

For ACTCTTAGCA, the switch fluorescence ratio was 1.19.

Sequence AGACCCTCAC has a switch fluorescence ratio of 1.08.

GCCAGACACC showed a switch fluorescence ratio of 1.04.

In the case of AGAAAGACGA, the switch fluorescence ratio is reported as 1.03.

Work on GTTGCTAAGC yielded a switch fluorescence ratio of 0.949.

With TAAGCGGGAA the switch fluorescence ratio was 1.02.

With TCCCGGAGGG the switch fluorescence ratio was 0.995.

Sequence CCCTTTATAC has a switch fluorescence ratio of 1.65.

In the case of CTTTACCGGA, the switch fluorescence ratio is reported as 0.955.

With GGCACGCAAC the switch fluorescence ratio was 1.83.

With ACATTGGCTG the switch fluorescence ratio was 1.06.

In the case of CTGGAACCGG, the switch fluorescence ratio is reported as 1.02.

GCAGCCACCA showed a switch fluorescence ratio of 1.05.
